Measured values: PubChem BioAssay (NCATS)
Inconclusive means that the source gave no clear call. Such entries were picked first, then a sample of the others. Potencies of inconclusive entries are doubtful fits and often do not repeat. Active and inactive are the calls of the source. Calls follow the shape of the dose curve; as a rule, active = well fitted activation curve with a large enough effect; inconclusive = small, poorly fitted or top-dose-only effect; inactive = no such curve, though single readings can be large or run the other way.

Biological target: Cellular tumor antigen p53 (Homo sapiens) (UniProt P04637)
Assay: Primary qHTS for small molecule compounds that upregulate eGFP-tagged delta133p53alpha (in N-terminal) cells. (AID 2060322); also: nearly all actives have a fitted effect of over 75% in size;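 as to activation: series mostly up to about 56 µM; 0% = DMSO vehicle and 100% = reference activator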
Conditions: NCI-H358 eGFP-delta133p53alpha fluorescence, 24 h; activation: stronger effect = higher value
How it was run: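 NCI-H358 cells pre-induced 24 h with 10 ng/ml doxycycline to express N-terminal eGFP-delta133p53alpha, then dosed 24 h at 37C without doxycycline; fixed, Hoechst-stained, GFP intensity by laser scanning cytometry, normalized to DMSO (0%) and 57.5 uM 5-azacytidine (100%).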
Potency is read from the fitted curve at half-maximal effect; tags tell the direction and shape of the fitted curve.

Chain of UniProt P04637 (P04637 whole entry, looked up): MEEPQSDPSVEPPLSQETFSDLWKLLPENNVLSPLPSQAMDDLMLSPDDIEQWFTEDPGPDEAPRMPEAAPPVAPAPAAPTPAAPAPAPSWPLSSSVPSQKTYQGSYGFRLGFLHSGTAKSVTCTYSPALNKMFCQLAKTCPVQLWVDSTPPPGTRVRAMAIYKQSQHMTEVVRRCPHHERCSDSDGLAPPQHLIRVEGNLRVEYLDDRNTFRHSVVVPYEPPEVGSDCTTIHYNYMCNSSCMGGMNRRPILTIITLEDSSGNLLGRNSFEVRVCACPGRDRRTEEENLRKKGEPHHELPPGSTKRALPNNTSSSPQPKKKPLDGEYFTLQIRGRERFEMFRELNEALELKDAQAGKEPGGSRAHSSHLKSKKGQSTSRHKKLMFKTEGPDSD

| SMILES | activation | Potency |
| --- | --- | --- |
| COc1cc(C(=O)NC2CCCNC2)cc(OC)c1OC (configuration not stated) | inactive: -3.95% |  |
| OC[C@H]1O[C@@H](OCCc2ccc(O)cc2)[C@H](O)[C@@H](O)[C@H]1O |  | inconclusive: 19.5 µM [activator, single point] |
| CN(C)CCCn1cc(C2=C(c3c[nH]c4ccccc34)C(=O)NC2=O)c2ccccc21 |  | active: 30.1 µM |
| CC1(C)O[C@]23C[C@H]1C[C@H](OC(=O)c1ccoc1)[C@]2(C)[C@@H](OC(=O)c1ccoc1)CCC3(C)O (some centres not stated) | inactive: -5.34% |  |
| COC1CC(O[C@H]2CC[C@]3(C)C4CC[C@@]5(C)C(=O)[C@]4(CC[C@@H]3C2)CC[C@@H]5C2=CC(=O)OC2)OC(C)C1OC1OC(COC2OC(CO)C(O)C(O)C2O)C(O)C(O)C1O (some centres not stated) |  | inconclusive: 4.53 µM [activator, single point] |
| CC(=O)O[C@@H]1CC2C(C)(C)C(=O)C=C[C@]2(C)C2CC[C@@]3(C)[C@H](c4ccoc4)OC(=O)[C@H]4O[C@]43[C@@]21C (some centres not stated) |  | inconclusive: 1.65 µM [activator, partial curve, poor fit] |
| CCC(C)/C=C(C)/C=C/C1=CC2=CC(=O)C(C)(O)C(OC(C)=O)C2CO1 (configuration not stated) |  | inconclusive: 7.4 µM [activator, partial curve, poor fit] |
| COC(=O)CCC1(C)C(C(C)(C)O)C(O)CC2(C)Oc3c(C)c4c(c(OC)c3CC21)C(=O)OC4 (configuration not stated) | inactive: -3.82% |  |
| COC(=O)C1(C)c2[nH]c3ccccc3c2CCN1C(=O)CCl (configuration not stated) |  | active: 30.1 µM |
| C/C=C(\C)C(=O)OC1C(C)C2(O)C(C=C(CO)CC3(O)C(=O)C(C)=CC32)C2C(C)(C)C12OC(=O)C(C)C (configuration not stated) |  | inconclusive: 10.4 µM [activator, single point] |
| CCc1nnc(NS(=O)(=O)c2ccc(N)cc2)s1 |  | inconclusive: 3.89 µM [activator, full curve] |
| CN(C)Cc1ccc(-c2cnn3c(-c4cccc(NC(=O)c5cccc(C(F)(F)F)c5)c4)ccnc23)cc1 |  | inconclusive: 37.9 µM [activator, single point] |
| C/C=C/C=C/C=C/C(=O)O[C@@H]1[C@@H](OC)C2=C(C(=O)N(C(C)C(=O)O)C2)[C@@]2(C)CCCC(C)(C)[C@H]12 (some centres not stated) | inactive: -2.68% |  |
| CC(=O)N[C@H]1[C@H]([C@H](O)[C@H](O)CO)OC(C(=O)O)=C[C@@H]1N=C(N)N | inactive: 5.02% |  |
| O=C(CCCN1CCN(c2ccc(F)cc2)CC1)NC1c2ccccc2CSc2ccccc21 (configuration not stated) | inactive: -15% |  |
| CCCCCCCCCCCCCCCC[n+]1ccccc1 |  | inconclusive: 11 µM [activator, single point] |
| CCCCc1nc2cc(C=CC(=O)NO)ccc2n1CCN(CC)CC |  | inconclusive: 43.2 µM [activator, single point] |
| COc1cc2nc(-c3cc(F)ccc3O)nc(N[C@@H]3CNC[C@@H]3C(C)(C)O)c2cc1OC |  | active: 34.3 µM |
| O=C(CCN1CCC(c2ccccc2)C1)c1ccc2c(c1)OCCO2 (configuration not stated) |  | inconclusive: 38.9 µM [activator, single point] |
| CCCc1c(C(C)C)nc(C(C)C)c([C@@H](C)O)c1-c1ccc(F)cc1O |  | inconclusive: 37.9 µM [activator, single point] |
| C=C1CCC[C@]2(C)C[C@]3(O)OC(=O)C(C)=C3C[C@@H]12 |  | inconclusive: 3.01 µM [activator, full curve, poor fit] |
| NCCO |  | inconclusive: 31.7 µM [activator, single point] |
| COC(=O)C(CC1CCCC1)c1ccc(S(C)(=O)=O)cc1 (configuration not stated) | inactive: 0.955% |  |
| CC1OC2OC3C(OCC(O)C3O)OC(=O)C34CCC(C)(C)CC3C3=CCC5C6(C)CC(O)C(OC7OC(CO)C(O)C(O)C7OC7OCC(OC(=O)CC(C)(O)CC(=O)OC1C(OC1OCC(O)C(O)C1O)C2O)C(O)C7O)C(C)(CO)C6CCC5(C)C3(C)CC4O (configuration not stated) |  | inconclusive: 4.15 µM [activator, single point] |
| CC1(C)C=Cc2c(ccc3c2N=C2C(C)(C)[C@@H]4C[C@]56CCCN5C(=O)[C@@]4(C[C@]23O)NC6=O)O1 |  | inconclusive: 1.17 µM [activator, partial curve] |
| CCCc1c(OCCCCc2nn[nH]n2)ccc(C(C)=O)c1O | inactive: -2.82% |  |
| c1ccc(C(O[C@H]2CCCN(CCc3ccc4c(c3)OCO4)C2)c2ccccc2)cc1 |  | inconclusive: 38.9 µM [activator, single point] |
